In all, about 1,900 compounds went through this assay and about 40 (2%) showed an effect of 50% or more. The list shows a part of the results. Residues, ends and D or L forms follow the SMILES beside them. *: point of attachment. NHCH2CH2OH = OCCN*; For = O=C*

Sequence of human SGLT1 (hSGLT1) (P13866 whole entry, looked up): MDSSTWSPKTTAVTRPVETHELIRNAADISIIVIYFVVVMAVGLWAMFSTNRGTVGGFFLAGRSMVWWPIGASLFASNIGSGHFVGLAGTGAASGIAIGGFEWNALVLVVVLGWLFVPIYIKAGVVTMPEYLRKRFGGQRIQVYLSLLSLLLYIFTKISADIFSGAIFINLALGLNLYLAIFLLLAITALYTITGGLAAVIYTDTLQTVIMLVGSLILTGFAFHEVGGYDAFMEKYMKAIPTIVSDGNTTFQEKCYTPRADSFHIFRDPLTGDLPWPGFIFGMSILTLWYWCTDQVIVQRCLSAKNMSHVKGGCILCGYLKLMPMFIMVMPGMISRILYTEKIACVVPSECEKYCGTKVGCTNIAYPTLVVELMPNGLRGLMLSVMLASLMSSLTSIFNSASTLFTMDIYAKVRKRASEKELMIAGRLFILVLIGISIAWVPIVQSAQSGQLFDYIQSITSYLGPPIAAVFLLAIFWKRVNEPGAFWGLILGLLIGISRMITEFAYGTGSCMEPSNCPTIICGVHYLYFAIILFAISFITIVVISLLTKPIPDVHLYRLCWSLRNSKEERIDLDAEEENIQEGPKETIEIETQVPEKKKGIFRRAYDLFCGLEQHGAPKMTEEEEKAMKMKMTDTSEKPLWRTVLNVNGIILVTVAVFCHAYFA

This assay deals with human SGLT1 (hSGLT1) (human, UniProt P13866). Put plainly: primary screen, percent of control activity; higher = less effect of the substance. More on the design: single well. The following applies: 50 µM. A digest of the protocol:
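Single-point screen at 50 µmol/L in CHO-hSGLT1 cells, with 160 µmol/L 1-NBD-glucose in glucose-free DMEM for 90 min at 37°C. Fluorescence from isopropanol extracts was calibrated, and CHO wild-type uptake was subtracted. Data are percent of uptake without compound.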
Consider `Cc1[nH]c2ccccc2c1CN(C)C`, for which the “NORMALIZED SGLT1 ACTIVITY (%)” value was determined as 88%.

Turning to `CC(C)CC(NC(=O)C(C)NC(=O)CNC(=O)C(NC=O)C(C)C)C(=O)NC(C)C(=O)NC(C(=O)NC(C(=O)NC(C(=O)NC(Cc1c[nH]c2ccccc12)C(=O)NC(CC(C)C)C(=O)NC(Cc1c[nH]c2ccccc12)C(=O)NC(CC(C)C)C(=O)NC(Cc1c[nH]c2ccccc12)C(=O)NC(CC(C)C)C(=O)NC(Cc1c[nH]c2ccccc12)C(=O)NCCO)C(C)C)C(C)C)C(C)C` (stereo not drawn) (For-VGALAVVVWLWLWLW-NHCH2CH2OH; configuration not given here), the “NORMALIZED SGLT1 ACTIVITY (%)” value is 117%.

Take `CC(=O)OC[C@H]1O[C@@H](Oc2cc(OC(C)=O)c3c(=O)cc(-c4ccc(OC(C)=O)cc4)oc3c2)[C@H](OC(C)=O)[C@@H](OC(C)=O)[C@@H]1OC(C)=O`: the “NORMALIZED SGLT1 ACTIVITY (%)” value was found to be 133%.

With `CC(CCC(=O)O)[C@H]1CCC2C3CC[C@@H]4CCCC[C@]4(C)C3CC[C@@]21C` (stereo partly drawn), the “NORMALIZED SGLT1 ACTIVITY (%)” value was found to be 71%.

In the case of `Cc1cc2nc3c(=O)[nH]c(=O)nc-3n(C[C@H](O)[C@H](O)[C@H](O)CO)c2cc1C`, the “NORMALIZED SGLT1 ACTIVITY (%)” value is listed as 130%.

With `CC(C)NNC(=O)c1ccncc1.O=S(=O)(O)O`, the “NORMALIZED SGLT1 ACTIVITY (%)” value came to 85%.

In the case of `NCC(CC(=O)O)c1ccc(Cl)cc1` (stereo not drawn), the “NORMALIZED SGLT1 ACTIVITY (%)” value stood at 92%.

Take `COc1cc(C)c(C(=O)Oc2cc(C)c(C(=O)O)c(O)c2C)c(OC)c1C`: the “NORMALIZED SGLT1 ACTIVITY (%)” value stood at 440%.

`Cc1cc(=O)oc2c(O)c(O)ccc12`: the “NORMALIZED SGLT1 ACTIVITY (%)” value was determined as 197%.

As for `CC(=O)[C@@]1(O)CC[C@H]2[C@@H]3CCC4=CC(=O)CC[C@]4(C)[C@H]3CC[C@@]21C`, the “NORMALIZED SGLT1 ACTIVITY (%)” value came out at 128%.

Consider `CC1=CC(=O)C2C(C)(C)CCC[C@]2(C)[C@@]1(O)CCc1ccoc1` (stereo partly drawn), for which the “NORMALIZED SGLT1 ACTIVITY (%)” value was found to be 147%.

`C[C@H]1[C@H](C)CC[C@]2(C(=O)O)CC[C@]3(C)C(=CC[C@@H]4[C@@]5(C)CC[C@H](O)C(C)(C)[C@@H]5CC[C@]43C)[C@H]12`: the “NORMALIZED SGLT1 ACTIVITY (%)” value is recorded as 84%.

On to `COc1ccccc1N1CCN(CCCNc2cc(=O)n(C)c(=O)n2C)CC1.Cl`, for which the “NORMALIZED SGLT1 ACTIVITY (%)” value is 115%.

For the compound `CC(C)(C)C(=O)C(Oc1ccc(Cl)cc1)n1cncn1` (stereo not drawn), the “NORMALIZED SGLT1 ACTIVITY (%)” value was determined as 55%.

With `CC(=O)OC1CCC2(O)CC1(C)CCC1C2CC1(C)C` (stereo not drawn), the “NORMALIZED SGLT1 ACTIVITY (%)” value worked out at 87%.

In the case of `COc1ccc(C(Cl)=C(c2ccc(OC)cc2)c2ccc(OC)cc2)cc1`, the “NORMALIZED SGLT1 ACTIVITY (%)” value turned out to be 108%.

Take `CC(NCCc1ccc(O)cc1)C(O)c1ccc(O)cc1.Cl` (stereo not drawn): the “NORMALIZED SGLT1 ACTIVITY (%)” value came to 109%.

Regarding `CC(=O)O.Cc1cc2c(C(C)C)c(O)c(O)c(C=O)c2c(O)c1-c1c(C)cc2c(C(C)C)c(O)c(O)c(C=O)c2c1O`, the “NORMALIZED SGLT1 ACTIVITY (%)” value turned out to be 139%.

As to `NCCCCCC(=O)O`, the “NORMALIZED SGLT1 ACTIVITY (%)” value was 113%.

With `COc1cc(/C=C/C(=O)O)cc(OC)c1OC`, the “NORMALIZED SGLT1 ACTIVITY (%)” value is 145%.

With `CC[C@@]1(O)C[C@H](O[C@H]2C[C@H](N(C)C)[C@H](O[C@H]3C[C@H](O)[C@H](O[C@H]4CCC(=O)[C@H](C)O4)[C@H](C)O3)[C@H](C)O2)c2c(cc3c(c2O)C(=O)c2c(O)cccc2C3=O)[C@H]1C(=O)OC`, the “NORMALIZED SGLT1 ACTIVITY (%)” value was found to be 120%.
